# Source: PubChem BioAssay (NCATS)
# Where “and” joins values, the source holds several entries; their conditions need not be identical. Equal values may be shown once. This list was built around the results that the source calls inconclusive (neither active nor inactive); the mix of calls is not that of the screen. For part of these data: Potencies of inconclusive entries are doubtful fits and often do not repeat. Calls of active or inactive are those of the source. Unless noted, calls follow the shape of the dose curve; as a rule, active = well fitted curve in the direction sought with a large enough effect; inconclusive = small, poorly fitted or top-dose-only effect, or another doubt; inactive = no such curve, though single readings can be large; an effect the other way counts as inactive or inconclusive.
# Experiments:
# [1] = AP1 Signaling Pathway (AID 357; active = well fitted curve in either direction with a large enough effect, not every such curve was filed as active; inconclusive = small, poorly fitted or top-dose-only effect, or another doubt;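 also: ME-180 reporter cells stimulated with EGF at its EC50 level; top concentration of the series differs between compounds; % is scaled to controls: 0 for no effect and ±100 for the full control effect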); settings: ME-180 AP-1-bla reporter, EGF-induced, beta-lactamase ratio, 5 h; at 17.2 µM (top of the series) unless noted
# How it was run: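 Cells are seeded overnight, exposed to compound titrations and an EC50 level of EGF for 5 hours at 37 °C, then loaded with CCF4 dye for 2.5 hours. Beta-lactamase activity under the AP-1 element is read as a blue/green ratio.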
# [2] = Stat Signaling Pathway (AID 446; active = well fitted curve in either direction with a large enough effect, not every such curve was filed as active; inconclusive = small, poorly fitted or top-dose-only effect, or another doubt;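 also: ME-180 cervical cancer cells given 40 pM IL-6 alongside compound; SIE-controlled beta-lactamase reporter measured as 460/530 nm FRET emission ratio; top concentration of the series differs between compounds; % is scaled to controls: 0 for no effect and ±100 for the full control effect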); settings: ME-180 SIE beta-lactamase reporter, IL-6 stimulated, 5 h; at 38 µM (top of the series) unless noted
# How it was run: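 ME-180 cells carrying a SIE-driven beta-lactamase reporter are stimulated with 40 pM IL-6 for 5 h at 37C in the presence of compound. The 460/530 nm FRET substrate ratio is read after 2.5 h at RT. Data are normalised to 300 pM IL-6 and to 125 nM JAK inhibitor controls.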
# [3] = molecular target: Mitogen-activated protein kinase 10 (Mus musculus) (UniProt Q61831); test: JNK3 AlphaScreen Assay (AID 530; active = well fitted curve in either direction with a large enough effect, not every such curve was filed as active; inconclusive = small, poorly fitted or top-dose-only effect, or another doubt;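 also: kinase came from lysate of stimulated human HepG2 cells; signal reports phosphorylation of biotinylated GST-cJun 1-79 at Ser73 with 10 µM ATP; % is scaled to controls: 0 for no effect and ±100 for the full control effect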); settings: JNK3 lysate, c-Jun phosphorylation; activity change, negative = inhibition: at 57.1 µM (top of the series)
# How it was run: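 qHTS format: compounds tested as titrations against IL-1beta/TNF-alpha-activated HepG2 lysate JNK3 with biotin-GST-cJun substrate and 10 uM ATP at room temperature. Loss of anti-phospho-cJun AlphaScreen signal indicates inhibition.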
# [4] = qHTS Assay for Identification of Small Molecule Antagonists for NFkB Signaling Pathway (AID 895; active = well fitted inhibition curve with a large enough effect in the signal ratio, with a control signal flat, not every such curve was filed as active; inconclusive = small, poorly fitted or top-dose-only effect, or effect the other way, or a change in a side signal; the % refers to the signal ratio; also: potency is read from the fitted curve at half-maximal effect); settings: NFkB beta-lactamase reporter cells, FRET ratio 460/530; activity change, negative = inhibition: at 38.3 µM (top of the series) unless noted
# How it was run: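 ME-180 NFkB-bla cells (beta-lactamase under NFkB response element), plated overnight, treated with compound then 10 pM TNF alpha (about EC50) for 5 hrs at 37 C. LiveBLAzer FRET read at 460/530 nm emission, 405 nm excitation.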
# [5] = qHTS Assay for Identification of Small Molecule Agonists for Thrombopoietin (TPO) Signaling Pathway (AID 917); also: potency is read from the fitted curve at half-maximal effect
# How it was run: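 IL-3-dependent murine pro-B Ba/F3 cells, stably transfected with human TPO receptor and GpIIb-promoter luciferase, are incubated 24 hrs at 37 C with test compound and 26 pM TPO; luciferase signal is read after 10 min at room temperature.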
# [6] = molecular target: Muscarinic acetylcholine receptor M1 (Rattus norvegicus) (UniProt P08482); test: qHTS Assay for Antagonists of Acetylcholine Muscarinic M1 Receptor: Kinetic Measurement of Intracellular Calcium Response (AID 943); also: nearly all actives have a fitted effect of over 75% in size; also: potency is read from the fitted curve at half-maximal effect;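 as to activity change, negative = inhibition: Fluo-4 calcium signal as peak divided by basal fluorescence over 4 min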
# Sequence of UniProt P08482 (P08482 whole entry, looked up): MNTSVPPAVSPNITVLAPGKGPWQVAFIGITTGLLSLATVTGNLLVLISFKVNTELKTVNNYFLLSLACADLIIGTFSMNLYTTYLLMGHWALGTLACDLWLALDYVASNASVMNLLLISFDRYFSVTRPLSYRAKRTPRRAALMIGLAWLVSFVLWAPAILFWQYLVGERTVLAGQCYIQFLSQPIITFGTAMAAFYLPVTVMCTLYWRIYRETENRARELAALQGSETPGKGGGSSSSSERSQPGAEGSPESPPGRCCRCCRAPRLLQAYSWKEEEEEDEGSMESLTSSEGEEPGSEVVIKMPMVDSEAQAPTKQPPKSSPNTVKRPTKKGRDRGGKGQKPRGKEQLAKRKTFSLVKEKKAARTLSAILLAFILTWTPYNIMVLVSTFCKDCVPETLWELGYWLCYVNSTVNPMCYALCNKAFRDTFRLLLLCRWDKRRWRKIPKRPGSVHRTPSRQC
# How it was run: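 Intracellular calcium flux, recorded with Fluo-4 in a kinetic plate reader, served as signal; the response to carbachol at EC80 (100 nM final) was taken as maximal over minimal fluorescence after a 10 min compound pre-incubation in rat M1-CHO cells.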
# [7] = molecular target: Muscarinic acetylcholine receptor M1 (Rattus norvegicus) (UniProt P08482); test: qHTS Assay for Antagonists of Acetylcholine Muscarinic M1 Receptor: Measurement of IP-One Response (AID 944); also: potency is read from the fitted curve at half-maximal effect; nearly all actives have a fitted effect of over 75% in size
# [8] = qHTS for differential inhibitors of proliferation of Plasmodium falciparum line 7G8 (AID 1815);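 also: potency is read from the fitted curve at half-maximal effect; parasite growth measured after three days of incubation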
# [9] = qHTS for differential inhibitors of proliferation of Plasmodium falciparum line GB4 (AID 1816); settings: Potency: Plasmodium falciparum GB4 proliferation inhibition;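 also: potency is read from the fitted curve at half-maximal effect; parasite growth measured after 72 h incubation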
# [10] = qHTS for differential inhibitors of proliferation of Plasmodium falciparum line W2 (AID 1883); settings: Potency: Plasmodium falciparum W2 proliferation inhibition;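 also: potency is read from the fitted curve at half-maximal effect; parasites grown with compound for 72 h before lysis and staining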
# [11] = qHTS Assay for Modulators of Human Peripheral Myelin Protein 22 (PMP22) Expression/Activity (AID 1967; active = well fitted curve in the direction sought with a large enough effect in the signal ratio; inconclusive = small, poorly fitted or top-dose-only effect, or effect the other way, or a change in a side signal; inactive = no such curve, though single readings can be large or run the other way; the % refers to the signal ratio;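 also: 0% = untreated cells and 100% end not stated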); settings: Cell-based PMP22 reporter, dual-color luciferase ratio, mouse Pmp22 promoter in mouse Schwann cells; activity change (ratio): at 115 µM (top of the series)
# How it was run: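 Engineered MSC80 cells, Pmp22-promoter green and EF-alpha red luciferase reporters; 24h compound treatment at 37 °C. Concentration-response fits on green, red and ratio signals, each overlap-corrected, with %Activity normalized to untreated wells.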
# [12] = Validation screen for inhibitors of Lassa infection (AID 463096; calls by dose curve; also: potency is read from the fitted curve at half-maximal effect)
# [13] = Validation screen for small molecules that induce DNA re-replication in MCF 10A normal breast cells (AID 463097); also: 0% is about no effect; nearly all actives have a fitted effect of over 60% in size
# How it was run: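 Following 48 hr compound incubation (37 C, 5% CO2), MCF 10A cells receive Hoechst for 40 min at 37 C. Nuclei are then scanned (excitation 405 nm, emission 500-530 nm) for total fluorescence intensity.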
# [14] = test system: Zika virus NS2B-NS3 protease; test: Primary screen GU AMC qHTS for Zika virus inhibitors (AID 1347154); also: nearly all actives have a fitted effect of over 70% in size; also: potency is read from the fitted curve at half-maximal effect;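 as to activity change, negative = inhibition: 0% = no-inhibitor control and -100% = no-enzyme control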
# How it was run: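 Unlinked Zika NS2B hydrophilic domain–NS3 protease complex at 25 nM in 10 mM Tris-HCl pH 8.0, 0.01% Tween 20, with an AMC peptide substrate. Fluorescence change (340/450 nm) over 15 min at room temperature, normalized to controls, fitted to 4-parameter Hill.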
# [15] = Counterscreen qHTS for small molecule stabilizers of the endoplasmic reticulum resident proteome: GLuc-NoTag assay (AID 1508627); also: potency is read from the fitted curve at half-maximal effect
# How it was run: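 SH-SY5Y cells stably expressing constitutively secreted GLuc without SERCaMP tag, exposed to compound for 19 hr, then to 100 nM thapsigargin for 4 hr at 37C. Medium luciferase was read by coelenterazine luminescence without lysis.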
# [16] = Confirmatory qHTS for small molecule stabilizers of the endoplasmic reticulum resident proteome: Secreted ER Calcium Modulated Protein (SERCaMP) assay (AID 1508628);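 also: SH-SY5Y cells given compound 16 h then thapsigargin 100 nM for 4 h; % is scaled to controls: 0 for no effect and ±100 for the full control effect; nearly all actives have a fitted effect of over 40% in size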
# How it was run: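 We seeded SH-SY5Y-GLuc-SERCaMP cells, added compounds (three concentrations in the primary run, eleven up to 76.6 uM in confirmation), incubated 16 h, depleted ER calcium with thapsigargin, and read luciferase 4 h later.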
# [17] = Cell Viability qHTS for small molecule stabilizers of the endoplasmic reticulum resident proteome (AID 1508629); settings: cell viability counter-screen, 100 nM thapsigargin for final 4 h;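 also: potency is read from the fitted curve at half-maximal effect; compound exposure about 46 h in total before the viability read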
# [18] = Primary qHTS for small molecule stabilizers of the endoplasmic reticulum resident proteome: Secreted ER Calcium Modulated Protein (SERCaMP) assay (AID 1508630); settings: SH-SY5Y GLuc-SERCaMP (Gaussia luciferase released on ER calcium loss) secretion, thapsigargin, luminescence; activity change, negative = inhibition: at 38.4 µM (top of the series); also: potency is read from the fitted curve at half-maximal effect
# How it was run: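 GLuc-SERCaMP-expressing SH-SY5Y cells, pretreated 16 h with compound, are challenged with thapsigargin to empty ER calcium stores; after 4 h, coelenterazine is added directly to the medium and luminescence is imaged.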
# [19] = NFAT Signaling Pathway (AID 444; active = well fitted curve in either direction with a large enough effect, not every such curve was filed as active; inconclusive = small, poorly fitted or top-dose-only effect, or another doubt;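 also: carbachol stimulus at about its EC50 of 1 µM final; % is scaled to controls: 0 for no effect and ±100 for the full control effect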); settings: Jurkat NFAT-bla M1, carbachol, beta-lactamase ratio, 5 h; at 7.69 µM (top of the series) unless noted
# How it was run: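 Jurkat cells with NFAT-driven β-lactamase reporter and co-expressed M1 receptor, stimulated with carbachol (final 1 uM, ~EC50), compound titration, 5 h at 37 °C. CCF4 loaded 1 h at RT; 460/530 nm ratio gave %activity and AC50.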
# [20] = qHTS Assay for Lipid Storage Modulators (AID 1519; calls by dose curve; also: % is scaled to controls: 0 for no effect and ±100 for the full control effect); settings: Drosophila S3 cells, BODIPY lipid droplet/cell ratio, laser cytometry, cells loaded with oleic acid; activity change, negative = inhibition: at 57.5 µM (top of the series) unless noted
# How it was run: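 Cells seeded at 5,000 per well were treated with compounds over a concentration series and loaded with oleic acid (400 uM, as added). Lipid droplet fluorescence (488 nm excitation, 500-530 nm channel) was read by laser-scanning cytometry and normalized to 20 uM Triacsin C.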
# [21] = molecular target: 3',5'-cyclic-AMP phosphodiesterase 4B (Homo sapiens) (UniProt Q07343); test: qHTS Assay for Inhibitors of PDE-IV (AID 607; active = well fitted activation curve with a large enough effect in the main read-out, with a control signal flat, not every such curve was filed as active; inconclusive = small, poorly fitted or top-dose-only effect, or effect the other way, or a change in a side signal; also: potency is read from the fitted curve at half-maximal effect); settings: HEK293 ACTOne CNG channel cells, membrane potential fluorescence; activation (PDE inhibition): at 22.9 µM (top of the series)
# Sequence of UniProt Q07343 (Q07343 whole entry, looked up): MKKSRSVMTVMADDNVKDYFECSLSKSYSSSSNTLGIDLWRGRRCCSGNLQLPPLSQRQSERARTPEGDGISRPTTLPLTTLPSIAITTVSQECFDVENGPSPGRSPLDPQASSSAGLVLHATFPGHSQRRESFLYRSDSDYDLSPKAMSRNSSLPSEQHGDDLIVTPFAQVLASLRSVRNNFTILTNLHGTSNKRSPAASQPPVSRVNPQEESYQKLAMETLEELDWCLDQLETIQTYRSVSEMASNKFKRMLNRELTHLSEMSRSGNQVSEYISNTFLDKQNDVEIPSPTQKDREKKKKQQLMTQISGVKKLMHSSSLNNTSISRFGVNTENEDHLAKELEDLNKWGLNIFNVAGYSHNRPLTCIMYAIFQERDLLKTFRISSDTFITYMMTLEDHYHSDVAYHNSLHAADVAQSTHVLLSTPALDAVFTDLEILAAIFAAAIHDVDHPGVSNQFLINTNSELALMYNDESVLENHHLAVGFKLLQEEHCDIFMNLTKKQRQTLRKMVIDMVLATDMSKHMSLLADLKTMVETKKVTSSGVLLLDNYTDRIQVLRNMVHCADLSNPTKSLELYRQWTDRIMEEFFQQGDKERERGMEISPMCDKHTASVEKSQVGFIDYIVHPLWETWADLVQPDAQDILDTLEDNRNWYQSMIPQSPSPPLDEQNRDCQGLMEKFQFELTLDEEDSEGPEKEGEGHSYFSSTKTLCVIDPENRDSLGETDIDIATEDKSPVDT
# How it was run: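 HEK293 ACTOne cells with CNG channel (1000/well), endogenous PDE4; membrane potential dye, compounds up to 22.9 uM final. Fluorescence Ex 535/Em 590; RO 20-1724 (100 uM final) as reference.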
# [22] = molecular target: Guanine nucleotide-binding protein G(i) subunit alpha-1 (Homo sapiens) (UniProt P63096); test: qHTS Assay for Inhibitors of RGS12 GoLoco Motif Activity (Green Fluorophore) (AID 879);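 also: 0% = labeled peptide with Gαi1 and full inhibition = labeled peptide alone without protein; negative values mean loss of peptide binding seen as reduced polarization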
# Sequence of UniProt P63096 (P63096 whole entry, looked up): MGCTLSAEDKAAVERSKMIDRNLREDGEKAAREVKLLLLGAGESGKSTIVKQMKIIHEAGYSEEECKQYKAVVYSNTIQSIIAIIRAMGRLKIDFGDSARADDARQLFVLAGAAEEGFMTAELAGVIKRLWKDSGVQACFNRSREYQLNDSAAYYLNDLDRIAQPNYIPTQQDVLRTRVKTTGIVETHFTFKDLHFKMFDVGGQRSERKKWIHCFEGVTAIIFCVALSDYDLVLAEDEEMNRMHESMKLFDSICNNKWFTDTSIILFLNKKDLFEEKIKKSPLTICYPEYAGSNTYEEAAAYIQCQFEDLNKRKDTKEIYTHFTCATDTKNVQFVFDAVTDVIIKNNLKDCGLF
# How it was run: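 Fluorescence polarization assay: 50 nM Gαi1 with 10 nM FITC-labeled RGS12 GoLoco peptide in 10 mM Tris pH 7.5, 150 mM NaCl, 0.1 mM GDP, 0.05% NP40, 10 min at room temperature with compound.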
# [23] = qHTS Assay for Identification of Small Molecule Antagonists for Thrombopoietin (TPO) Signaling Pathway (AID 918); settings: TPO-dependent cell signaling reporter, antagonist mode; activity change, negative = inhibition: at 38.5 µM (top of the series); also: nearly all actives have a fitted effect of over 60% in size
# How it was run: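 First, Ba/F3 reporter cells expressing human TPO receptor were held overnight without IL-3. Next, compound and 26 pM TPO were added. After 24 hrs incubation at 37 C, luciferase luminescence under the Glycoprotein IIb promoter was recorded.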
# [24] = qHTS Assay for Identification of Small Molecule Agonists for NFkB Signaling Pathway (AID 928; calls by dose curve); settings: NFkB beta-lactamase reporter cells, blue/green ratio
# How it was run: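 ME-180 NFkB-bla cells carry a beta-lactamase reporter under an NFkB response element. Compound plus 10 pM TNF alpha (final) was applied for 5 hrs at 37 C. After 2 hrs with LiveBLAzer substrate, 460/530 nm emission was read at 405 nm excitation.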
# Tags tell the direction and shape of the fitted curve or compound fluorescence and quenching.
compound,measurement,setting,value
CN1CCN(c2ccc3ccccc3n2)CC1,"activity change, negative = inhibition",[1],inconclusive: 68.3% [activator] [at 38 µM]
same,"activity, negative = inhibition",[2],inconclusive: -5.99% [inhibitor]
same,"activity change, negative = inhibition",[3],inconclusive: 3.22%
same,Potency,[4],inactive
same,Potency,[5],"inconclusive: 10 µM [activator, single point] [stimulated with TPO at its EC50]"
same,Potency,[6],"inconclusive: 20 µM [inhibitor, partial curve, poor fit]"
same,Potency,[7],"inconclusive: 20 µM [inhibitor, partial curve, poor fit]"
same,Potency,[8],"inconclusive: 5.62 µM [inhibitor, partial curve]"
same,Potency,[9],"inconclusive: 15.8 µM [inhibitor, partial curve, poor fit]"
same,Potency,[10],"inconclusive: 10 µM [inhibitor, partial curve]"
same,Potency,[11],inactive
same,Potency,[12],"inconclusive: 5.62 µM [activator, partial curve, poor fit]"
same,Potency,[13],inactive
same,Potency,[14],"inconclusive: 29.9 µM [inhibitor, single point]"
same,Potency,[15],"inconclusive: 0.794 µM [inhibitor, full curve, poor fit]"
same,Potency,[16],inactive
same,Potency,[17],"inconclusive: 0.178 µM [rising, full curve]"
same,Potency,[18],"inconclusive: 158 µM [inhibitor, full curve] and inconclusive: 10 µM [inhibitor, partial curve, poor fit]"
CN1CCN(C(=O)OC2c3nccnc3C(=O)N2c2ccc(Cl)cn2)CC1 (stereo unspecified),"activity change, negative = inhibition",[19],inactive: 3% [at 17.2 µM]
same,"activity change, negative = inhibition",[20],inconclusive: 4.1%
same,Potency,[14],inactive
N#C/C(=C\c1ccc(O)c(O)c1)C(N)=S,"activity change, negative = inhibition",[1],inconclusive: -21.8% [inhibitor] [at 38 µM]
same,"activity, negative = inhibition",[2],inconclusive: -40.4% [inhibitor]
same,"activity change, negative = inhibition",[3],inconclusive: -64.5%
same,Potency,[21],"inconclusive: 12.6 µM [activator, partial curve]"
same,Potency,[22],inactive
same,Potency,[4],active: 5.62 µM
same,"activity change, negative = inhibition",[23],inconclusive: -16.6% [phenotype inactive]
same,Potency,[24],"inconclusive: 5.62 µM [inhibitor, partial curve]"
same,Potency,[6],inactive
same,Potency,[7],"inconclusive: 14.1 µM [inhibitor, partial curve, poor fit]"
same,"activity change, negative = inhibition",[20],inconclusive: 11.2%
same,Potency,[14],"inconclusive: 3.36 µM [inhibitor, partial curve, poor fit] and inconclusive: 8.44 µM [inhibitor, single point]"
same,Potency,[15],"inconclusive: 44.7 µM [inhibitor, partial curve, poor fit]"
same,Potency,[17],"inconclusive: 28.2 µM [cytotoxic, single point]"
same,Potency,[18],"inconclusive: 5.62 µM [inhibitor, partial curve, poor fit] and inconclusive: 35.5 µM [inhibitor, partial curve, poor fit]"
